Experimental data: PubChem BioAssay AID624417 (National Center for Advancing Translational Sciences (NCATS), 2012)
Hit rate of the full screen: of about 410,000 compounds, about 6,400 (1.6%) were called active. The inconclusive results got no clear call from the source; some entries with a clear call stand among them for comparison. Calls come from the whole dose curve; as a rule, active = well fitted inhibition curve with a large enough effect; inconclusive = small, poorly fitted or top-dose-only effect; inactive = no such curve, though single readings can be large or run the other way. No potency is given beside an inconclusive call; the fits are too rough.

What follows are compounds tested against Glucagon-like peptide 1 receptor (Homo sapiens) (UniProt P43220) (assay: qHTS of GLP-1 Receptor Inverse Agonists (Inhibition Mode)). Details: HEK293 GLP-1R CRE-luciferase, luminescence, 24 h, GLP-1R form is constitutively active; activity change, negative = inhibition: at 38.3 µM (top of the series) unless noted.
How it was run: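 Assay principle: reduced luminescence from a cAMP-responsive reporter in HEK293 cells co-expressing a constitutively active GLP-1R. Conditions: 24 hr compound incubation, 37 deg C, 5% CO2.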
% is set by controls: 0 for no effect and ±100 for the full control effect; potency is the fitted concentration of half-maximal effect; tags give direction and shape of the fitted curve.
Note: nearly all actives have a fitted effect of over 55% in size.

Chain of UniProt P43220 (P43220 whole entry, looked up): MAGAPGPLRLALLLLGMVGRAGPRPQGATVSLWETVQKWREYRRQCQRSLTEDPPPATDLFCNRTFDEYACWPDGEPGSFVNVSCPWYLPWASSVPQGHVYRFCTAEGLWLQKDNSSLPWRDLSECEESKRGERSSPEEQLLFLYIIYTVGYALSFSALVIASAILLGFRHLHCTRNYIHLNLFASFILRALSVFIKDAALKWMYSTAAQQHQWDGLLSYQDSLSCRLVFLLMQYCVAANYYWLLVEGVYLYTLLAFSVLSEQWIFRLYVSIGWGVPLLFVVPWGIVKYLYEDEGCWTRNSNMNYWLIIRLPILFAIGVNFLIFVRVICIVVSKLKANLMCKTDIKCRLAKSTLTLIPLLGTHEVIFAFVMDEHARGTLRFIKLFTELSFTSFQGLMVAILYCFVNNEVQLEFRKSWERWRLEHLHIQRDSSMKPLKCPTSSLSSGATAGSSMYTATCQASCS

| SMILES | Potency | activity change, negative = inhibition |
| --- | --- | --- |
| NC(Cc1ccccc1)c1csc(NC(=O)c2cccc(OC(F)(F)F)c2)n1 (configuration not stated) | inconclusive [inhibitor, single point] | – |
| Cc1cc(NC(=O)CCC(=O)N(c2ccccc2)C2(C(=O)NC3CCCCC3)CCCC2)no1 | inconclusive [inhibitor, single point] | – |
| CC(=O)c1c(C)[nH]c(C(=O)NCCC2=CCCCC2)c1C | – | inactive: -9.46% |
| COc1ccc(C)cc1N(CC(=O)NCCSCc1ccco1)S(=O)(=O)c1ccc(C)cc1 | inconclusive [inhibitor, single point] | – |
| CC1CCN(c2oc(-c3ccc(COc4ccccc4)o3)nc2C#N)CC1 | inconclusive [inhibitor, single point] | – |
| CCN(CC)CCNS(=O)(=O)c1ccc(OC)c(Br)c1 | inconclusive [inhibitor, partial curve, poor fit] | – |
| COc1ccc(Cl)cc1-c1nc(SCC(=O)NC(C)(C)C)n[nH]1 | inconclusive [inhibitor, single point] | – |
| O=C(OCC1COC(c2ccccc2)(c2ccccc2)O1)c1ccccc1 (configuration not stated) | inconclusive [inhibitor, partial curve, poor fit] | – |
| O=[N+]([O-])c1cccc(NC(=S)Nc2nc(-c3ccccc3Cl)cs2)c1 | inconclusive [inhibitor, partial curve, poor fit] | – |
| CCCCNc1oc(-c2cccs2)nc1S(=O)(=O)c1ccccc1 | inconclusive [inhibitor, single point] | – |
| CC(C)(C)OC(=O)N1CCC(c2cc(=O)n3[nH]cc(C(=O)Nc4ccc(F)c(Cl)c4)c3n2)CC1 | – | inactive: 28.6% |
| CCc1ccc(-n2c(N3CCN(c4cccc(Cl)c4)CC3)nc3ccccc3c2=O)cc1 | inconclusive [inhibitor, partial curve, poor fit] | – |
| COc1ccc(CNC(=O)c2sc3nc4c(c(C(F)(F)F)c3c2N)CCC4)cc1OC | – | inactive: 10.6% |
| Cc1cccc(-c2nc3nc(C)cc(NCc4ccccc4Cl)n3n2)c1 | inconclusive [inhibitor, single point] | – |
| COc1ccc(Cl)cc1NC(=O)C/C(C)=N/NC(=O)C(=O)NCc1ccccc1 | inconclusive [inhibitor, single point] | – |
| Cc1c(CC(=O)N2CCC(O)CC2)c(=O)oc2cc3c(cc12)CCC1(CCCCC1)O3 | inconclusive [inhibitor, partial curve, poor fit] | – |
| Cc1ccc(NC(=O)CCN2CCC(Cc3ccccc3)CC2)cc1 | inconclusive [inhibitor, partial curve, poor fit] | – |
| COc1ccc(C(C(=O)NC2CCCC2)n2c(Cc3cc(F)cc(F)c3)nc3ccccc32)cc1 (configuration not stated) | inconclusive [inhibitor, partial curve, poor fit] | – |
| COc1ccc(-c2cc(C(F)(F)F)nc(-n3nc(C(F)(F)F)cc3C)n2)cc1 | inconclusive [inhibitor, single point] | – |
| CN(C)C(=O)CSc1nc(-c2cccs2)c(-c2cccs2)[nH]1 | – | inactive: 35.6% |
| COc1ccc(C2=CSC(/N=C/c3ccc(F)cc3)=NN2)cc1 | inconclusive [inhibitor, single point] | – |
| NC(=O)C1CCN(CC(=O)Nc2nc(-c3ccccc3)cs2)CC1 | – | inactive: 9.23% |
| COc1ccccc1C1/C(=C(/O)c2ccccc2)C(=O)C(=O)N1CC(C)C (configuration not stated) | – | inactive: -16.5% |
| Cc1ccc(Cn2ccc(-c3cnc(-c4ccccc4)s3)n2)cc1 | inconclusive [inhibitor, single point] | – |

| SMILES | Potency | activity change, negative = inhibition |
| --- | --- | --- |
| CC(=O)c1ccc(N=C2C(=O)Nc3ccccc32)cc1 | – | inactive: 7.44% |
| O=C(CCS(=O)(=O)c1ccc(Br)cc1)Nc1ccc(Cl)c(C(F)(F)F)c1 | inconclusive [inhibitor, single point] | – |
| COc1ccccc1CCNC(=O)C(=O)NCC(c1cccs1)S(=O)(=O)c1ccccc1 (configuration not stated) | inconclusive [inhibitor, single point] | – |
| Cc1csc2ncnc(NNC(=O)c3ccc(Cl)cc3)c12 | inconclusive [inhibitor, partial curve, poor fit] | – |
| O=C(CCNS(=O)(=O)c1ccc(Br)s1)Nc1ccc(Cl)cc1 | – | inactive: -0.94% |
| Cc1nc(-c2ccc(S(=O)(=O)N3CCCCCC3)cc2)cs1 | inconclusive [inhibitor, single point] | – |
| CS(=O)(=O)c1cccc(C(=O)OCCCC(=O)c2ccccc2)c1 | – | inactive: 13.6% |
| CCOC(=O)c1sc2c(c1C)c(=O)n(Cc1ccccc1)c(=O)n2CCN(C)C | – | inactive: -26.3% |
| COC(=O)c1ccc(=O)c2nc3/c(=C/O)c(O)cc(=O)c3[nH]c12 | – | inactive: -24.8% |
| CCCCCC(=O)NN1C(=S)N(c2ccc(OC)cc2)C(=O)C1CC(=O)Nc1ccccc1 (configuration not stated) | – | inactive: 10.2% |
| Cc1cccc(CNc2ccc(C(CC(N)=O)NC(=O)Cc3cccc4ccccc34)cc2[N+](=O)[O-])c1 (configuration not stated) | inconclusive [inhibitor, single point] | – |
| CCN1CCN(C(=O)Cn2ncc3c4ccccc4n(Cc4ccccc4)c3c2=O)CC1 | inconclusive [inhibitor, single point] | – |
| COc1ccc(NC(=O)C(c2ccccc2)c2ccccc2)cn1 | inconclusive [inhibitor, single point] | – |
| Cc1cc(C)c(NC(=O)CN2C(=O)c3cccnc3Oc3ccc(C)cc32)c(C)c1 | – | inactive: 0.194% |
| COc1ccc(Cc2[nH]n3c(=O)cc(C(C)C)nc3c2-c2ccccc2)cc1 | inconclusive [inhibitor, partial curve, poor fit] | – |
| N#CC(CCc1ccc([N+](=O)[O-])cc1)(CCc1ccc([N+](=O)[O-])cc1)C(N)=O | inconclusive [inhibitor, single point] | – |
| O=C(Nc1ccnn1C1CCN(C/C=C/c2ccccc2)CC1)c1ccccc1Cl | inconclusive [inhibitor, single point] | – |
| Cc1ccc(/C=C/C(=O)Nc2ccc(S(N)(=O)=O)cc2)o1 | inactive | – |
| CC1(Cc2ccc(Cl)c(Cl)c2)C(=O)Nc2c(Cl)ccc(Cl)c21 (configuration not stated) | inconclusive [inhibitor, partial curve, poor fit] | – |
| Cc1ccc(S(=O)(=O)N2CCC3(CC2)CC(=O)c2ccccc2O3)cc1 | inconclusive [inhibitor, partial curve] | – |
| Cc1ccc(C(c2ccccc2)c2c(C)[nH]c3ccccc23)s1 (configuration not stated) | inconclusive [inhibitor, partial curve, poor fit] | – |
| CCCCNC(=O)CSc1nc(COc2ccccc2)nc2ccccc12 | inconclusive [inhibitor, partial curve, poor fit] | – |
| c1ccc2c(c1)ccc1ccccc12 | – | inactive: 10.1% |
